# Laboratory results: PubChem BioAssay AID485364 (National Center for Advancing Translational Sciences (NCATS), 2010)
# Among all 360,000 compounds or so, about 11,000 (3.1%) were called active. Inconclusive results, whose numbers are uncertain, are shown with a selection of clear calls. Calls come from the whole dose curve; as a rule, active = well fitted inhibition curve with a large enough effect; inconclusive = small, poorly fitted or top-dose-only effect; inactive = no such curve, though single readings can be large or run the other way. Potencies of inconclusive entries are left out as doubtful fits.
# Molecular target: Schistosoma mansoni thioredoxin glutathione reductase (TGR) (UniProt Q962Y6)
# Test: qHTS Assay for the Inhibitors of Schistosoma Mansoni Peroxiredoxins; note: nearly all actives have a fitted effect of over 60% in size
# Conditions: purified TGR, DTNB reduction, TNB absorbance 405 nm; series mostly up to 114 µM
# Procedure, shortened: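 First, TGR (20 nM dispensed) and NADPH were mixed with compound. Second, a 15 min room-temperature incubation followed. Third, further NADPH and then DTNB were added to start the reaction. Finally, TNB absorbance was monitored kinetically.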
# Potency is the fitted concentration of half-maximal effect; tags give direction and shape of the fitted curve.
row,SMILES,Potency
1,O=C(CNC(=O)c1ccco1)OCC(=O)c1ccc2c(c1)CCCC2,"inconclusive [inhibitor, single point]"
2,Cc1cnc(NC(=O)CCN2C(=O)C3CCCCC3C2=O)s1 (centres undefined),inactive
3,CCOC(=O)C1=NN(c2ccc(C)cc2)CC1C(=O)OC (centres undefined),inactive
4,O=C(CCn1c(=O)oc2ccc(Cl)cc21)N1CCN(c2ccccc2)CC1,"inconclusive [inhibitor, full curve, poor fit]"
5,Cc1ccc2nc(N3C(=O)C(O)=C(C(=O)c4ccc(C)o4)C3c3cccc(O)c3)sc2c1 (centres undefined),"inconclusive [inhibitor, partial curve]"
6,COc1ccc(S(=O)(=O)CCC(=O)NCc2ccc(C)o2)cc1,"inconclusive [inhibitor, full curve, poor fit]"
7,COC(=O)C1=C(C)NC(=O)/C1=C\c1cc(C)n(-c2cccc(C)c2)c1C,active: 25.1 µM
8,O=C(NC1CC(=O)N(c2ccccc2)C1)c1cc2ccccc2o1 (centres undefined),inactive
9,N#Cc1c(-c2ccco2)cc(C2CC2)nc1N,active: 10 µM
10,CC(=O)C1=C(C)OC(N)=C(C#N)C1c1cc2cccc(C)c2nc1Cl (centres undefined),"inconclusive [inhibitor, full curve, poor fit]"
11,CCN1C(=O)C2(C(C(=O)c3cc4ccccc4o3)=C(O)C(=O)N2CCCN(C)C)c2ccccc21 (centres undefined),"inconclusive [inhibitor, partial curve]"
12,Cc1cc(C(F)(F)F)nc(SCc2ccc(C(=O)O)o2)n1,active: 14.1 µM
13,COc1ccc(C(=O)Nc2nc3ccccc3s2)cc1OC,"inconclusive [inhibitor, single point]"
14,COc1ccc(CN2CCNC(=O)C2CC(=O)NC2CCCCCC2)c(C)c1C (centres undefined),"inconclusive [inhibitor, partial curve]"
15,O=c1c2cc([N+](=O)[O-])ccc2nc(CN2CCOCC2)n1-c1ccccc1F,"inconclusive [inhibitor, partial curve]"
16,CC12CCC(=O)N1C(C(=O)N1CCN(c3ccc(C(F)(F)F)cc3[N+](=O)[O-])CC1)CS2 (centres undefined),"inconclusive [inhibitor, full curve, poor fit]"
17,O=C(NC(=S)Nc1ccc(N2CCN(C(=O)c3ccccc3)CC2)cc1)c1cccs1,"inconclusive [inhibitor, full curve]"
18,O=C(O)c1ccc(N2CC3CC(C2)c2cccc(=O)n2C3)c(NC(=S)Nc2ccc(Cl)cc2Cl)c1 (centres undefined),"inconclusive [inhibitor, partial curve]"
19,NC(=O)C1CCN(/C=C2\C(=O)NC(=O)N(Cc3ccco3)C2=O)CC1,"inconclusive [inhibitor, partial curve]"
20,CCC(C(=O)NCCCN1CCN(C)CC1)n1nc(C)n2c(cc3occc32)c1=O (centres undefined),"inconclusive [inhibitor, partial curve]"
21,COc1ccc([N+](=O)[O-])cc1NC(=O)c1ccccc1SC,inactive
22,NC(=O)CC1SC(N)=NC1=O (centres undefined),"inconclusive [inhibitor, partial curve]"
23,Cc1ccc(C)n1-c1ccc(C(=O)NCC2CCCO2)cc1 (centres undefined),active: 39.8 µM

row,SMILES,Potency
1,c1csc(-c2nc3ccccn3c2Nc2ccc3c(c2)OCCO3)c1,"inconclusive [inhibitor, single point]"
2,Cc1ccc(S(=O)(=O)N2CCCCC2)cc1NC(=S)NC(=O)c1ccco1,"inconclusive [inhibitor, full curve]"
3,C[C@H](OC(=O)NCc1ccc(C(F)(F)F)cc1)[C@@H]1O[C@@]2(C)CCC[C@@H]1O2,inactive
4,CSc1ccc(-c2nc(CSCC(=O)NCCCN3CCCC3=O)c(C)o2)cc1,"inconclusive [inhibitor, partial curve]"
5,COC(=O)c1cc2occc2n1CC(=O)Nc1ccc(C)cc1C,"inconclusive [inhibitor, single point]"
6,CC(C)c1ccccc1NC(=S)NCc1ccncc1,"inconclusive [inhibitor, partial curve]"
7,Cc1ccc2nc(N3CCN(C(=O)c4ccco4)CC3)c3nncn3c2c1,"inconclusive [inhibitor, partial curve]"
8,CC(=O)Nc1ccc(NC2=CC(=O)CC(C)(C)C2)cc1,"inconclusive [inhibitor, partial curve]"
9,CCN1C(=O)N/C(=C/c2ccc(Sc3ccc(C)cc3)o2)C1=O,"inconclusive [inhibitor, partial curve]"
10,Cc1cccc(C)c1OCC(=O)Nc1c(C(=O)c2ccccc2)oc2ccccc12,inactive
11,S=C(NCCc1ccccc1)Nc1ccc(Br)cn1,"inconclusive [inhibitor, full curve]"
12,Cc1cc(Br)ccc1-n1[nH]c(C)c(C=Nc2cccc3nsnc23)c1=O,"inconclusive [inhibitor, partial curve]"
13,COc1cc(SC)ccc1C(=O)NCCCn1ccnc1,"inconclusive [inhibitor, partial curve, poor fit]"
14,COCCN1CCn2c(nc3cc(NC(=O)NC4CCCCC4)ccc32)C1,active: 8.91 µM
15,Cc1cccc(C)c1NC(=O)CNC(=O)CNC(=O)Cc1cccc2ccccc12,active: 6.31 µM
16,Nc1cc([N+](=O)[O-])ccc1Nc1ccc(O)cc1,"inconclusive [inhibitor, partial curve]"
17,COc1cccc(/C=C2\C=C(c3ccc(C)cc3)OC2=O)c1OC(C)=O,"inconclusive [inhibitor, partial curve]"
18,COCCNC(=O)/C(C#N)=C/C=C/c1ccccc1,"inconclusive [inhibitor, single point]"
19,CCCCNc1cc(N2CCN(C3CCCCC3)CC2)c2noc3c2c1C(=O)c1ccccc1-3,inactive
20,Cc1ccccc1C(CC(=O)c1cccs1)C(C#N)C#N (centres undefined),active: 3.16 µM
21,CCCCOc1ccc(C(C)=O)cc1Cc1c(O)[nH]c(=S)[nH]c1=O,"inconclusive [inhibitor, single point]"
22,CC1CCCCN1CCCNC(=O)c1cc(Br)c(Br)[nH]1 (centres undefined),"inconclusive [inhibitor, partial curve]"
23,CCn1nc(C)c(Br)c1C(=O)Sc1ccccc1Cl,active: 8.91 µM

row,SMILES,Potency
1,COc1cc(C(=O)OCC(=O)N2CCC(Cc3ccccc3)CC2)cc(OC)c1OC,"inconclusive [inhibitor, full curve, poor fit]"
2,COc1cc(NS(=O)(=O)c2cc3c(cc2C)n(C)c(=O)c(=O)n3C)cc(OC)c1,inactive
3,CC1CCN(CC(CS(=O)(=O)c2ccc([N+](=O)[O-])cc2)N2CCC(C)CC2)CC1 (centres undefined),active: 2.51 µM
4,O=C(N/C(=C\c1ccc(-c2ccccc2)o1)C(=O)N1CCOCC1)c1ccccc1,"inconclusive [inhibitor, partial curve]"
5,CC1=C(C(=O)Nc2ccccc2)C(c2ccco2)C(C#N)=C(SCC(=O)OC(C)C)N1 (centres undefined),"inconclusive [inhibitor, partial curve]"
6,CCOc1ccc(S(=O)(=O)NCCc2csc3nc(-c4cccc(C)c4)nn23)cc1,inactive
7,CC1=C/C(=N\OS(=O)(=O)c2ccccc2)C=CC1=O,active: 2.24 µM
8,O=[N+]([O-])c1ccc(S(=O)(=O)CC(CN2CCOCC2)N2CCOCC2)cc1 (centres undefined),"inconclusive [inhibitor, full curve, poor fit]"
9,O=C(N/N=C/c1ccc([N+](=O)[O-])o1)c1cn2ccc3ccccc3c2n1,inactive
10,CCOC(=O)c1cc2c(ccn2-c2ccc(F)cc2)n1CC(=O)N1CCN(C(=O)c2ccco2)CC1,"inconclusive [inhibitor, single point]"
11,CC1CC(c2ccccc2)=Nc2ccccc2N1 (centres undefined),"inconclusive [inhibitor, partial curve]"
12,C=CCN1C(=O)S/C(=C/c2ccc(Sc3nc4ccccc4[nH]3)o2)C1=O,inactive
13,C/C(=N\Nc1ccc(S(=O)(=O)Nc2ccc(Cl)cc2)cc1[N+](=O)[O-])c1ccc(N2CCOCC2)cc1,inactive
14,Cc1sc(NC(=O)CSc2nnnn2C2CCCC2)c(C#N)c1C,"inconclusive [inhibitor, single point]"
15,Nc1nc(COC(=O)CCC(=O)c2ccccc2)nc(Nc2ccccc2)n1,"inconclusive [inhibitor, partial curve]"
16,CCn1ccnc1[C@@H]1C[C@H]2CN(c3ccccc3OC)C(=O)[C@]23CCCN13,"inconclusive [inhibitor, single point]"
17,Cc1ccc(-c2cc(C(=O)NCc3ccco3)c3ccccc3n2)o1,active: 17.8 µM
18,Cn1cccc1Cc1nnc(SCC(=O)N2CCCCCC2)n1-c1ccc(F)cc1,"inconclusive [inhibitor, partial curve]"
19,Cc1ccc(C)c(SCC(=O)NC2CCS(=O)(=O)C2)c1 (centres undefined),inactive
20,COc1ccc(Cc2nc3ccc(C(=O)N(C)C(C)c4ccon4)cc3o2)cc1 (centres undefined),inactive
21,Oc1cccc2nc3ccccc3nc12,"inconclusive [inhibitor, partial curve, poor fit]"
22,CN(CC1CCOCC1)C(=O)CC1C(=O)NCCN1CC(c1ccccc1)c1ccccc1 (centres undefined),"inconclusive [inhibitor, partial curve]"
23,CCn1cc(C(=O)NC(=S)Nc2ccccc2Br)cn1,active: 79.4 µM
